# Among all 230,000 compounds or so, about 3,600 (1.6%) were called active. This list was built around the results that the source calls inconclusive (neither active nor inactive); the mix of calls is not that of the screen. Calls come from the whole dose curve; as a rule, active = well fitted inhibition curve with a large enough effect (not every such curve was filed as active); inconclusive = small, poorly fitted or top-dose-only effect, or another doubt; inactive = no such curve, though single readings can be large or run the other way. Potencies of inconclusive entries are doubtful fits and often do not repeat.
# Target: Lysine-specific demethylase 4E (Homo sapiens) (UniProt B2RXH2)
# UniProt B2RXH2, sequence (B2RXH2 whole entry, looked up, the tested form may be a part): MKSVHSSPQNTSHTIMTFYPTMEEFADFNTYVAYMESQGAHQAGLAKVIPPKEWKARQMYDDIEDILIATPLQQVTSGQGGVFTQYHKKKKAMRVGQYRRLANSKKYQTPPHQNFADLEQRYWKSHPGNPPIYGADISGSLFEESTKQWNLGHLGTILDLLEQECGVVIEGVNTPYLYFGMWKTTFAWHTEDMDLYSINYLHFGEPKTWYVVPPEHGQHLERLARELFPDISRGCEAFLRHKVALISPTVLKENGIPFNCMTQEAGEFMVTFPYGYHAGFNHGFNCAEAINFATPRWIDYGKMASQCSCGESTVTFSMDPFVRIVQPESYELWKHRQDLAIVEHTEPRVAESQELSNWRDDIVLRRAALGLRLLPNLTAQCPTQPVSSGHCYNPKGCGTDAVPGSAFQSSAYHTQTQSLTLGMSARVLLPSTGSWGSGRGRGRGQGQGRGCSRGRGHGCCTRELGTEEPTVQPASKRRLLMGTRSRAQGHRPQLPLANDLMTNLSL
# Experiment: qHTS Assay for Inhibitors of Human Jumonji Domain Containing 2E (JMJD2E)
# Conditions: JMJD2E catalytic domain, FDH-coupled NADH fluorescence (FDH is formaldehyde dehydrogenase); series mostly up to 57.1 µM; activity change, negative = inhibition: at the top concentration
# Note: nearly all actives have a fitted effect of over 50% in size.
# Potency is the fitted concentration of half-maximal effect; tags give direction and shape of the fitted curve.
# 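Throughout, for activity change, negative = inhibition: 0% = wells with enzyme and -100% = buffer wells without enzyme.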
SMILES,Potency,"activity change, negative = inhibition"
CCOC(=O)C1Sc2[nH]c(=O)sc2C(c2ccc(Cl)cc2)C1C(=O)OCC (centres undefined),"inconclusive: 39.8 µM [inhibitor, single point]",
COc1ccc(CN2CCN(c3ncccn3)CC2)c(OC)c1,"inconclusive: 39.8 µM [inhibitor, single point]",
Cc1ccc(/C=N\NC(=O)Cc2cccn2C)o1,"inconclusive: 28.2 µM [inhibitor, single point]",
Cc1cc(C)c(NC(=O)CSc2ccc(-c3cccnc3)nn2)c(C)c1,,inactive: 0.814%
O=C(N/N=C/c1sc(N2CCOCC2)nc1-c1ccccc1)c1ccccc1O,"inconclusive: 35.5 µM [inhibitor, partial curve]",
O=S(=O)(Nc1cccnc1)c1cccs1,"inconclusive: 39.8 µM [inhibitor, single point]",
COc1ccc(C(=O)Nc2nc3cc4c(cc3s2)OCCO4)c(OC)c1,"inconclusive: 31.6 µM [inhibitor, partial curve]",
COc1ccc2nc(SCc3cccc(C)c3)nc(C)c2c1,"inconclusive: 28.2 µM [inhibitor, partial curve]",
Cc1ccc(S(=O)(=O)/C(C#N)=C/c2ccccc2OCc2ccccc2)cc1,"inconclusive: 31.6 µM [inhibitor, partial curve]",
O=C(CNCc1cccs1)Nc1ccc(S(=O)(=O)N2CCCCC2)cc1,"inconclusive: 25.1 µM [inhibitor, single point]",
CC(C)C(=O)NC(=S)Nc1c(Cl)ccc2nsnc12,,inactive: -9.14%
O=C(Nc1cccc(Cl)c1)N1CCN(Cc2ccccc2)CC1,"inconclusive: 3.16 µM [inhibitor, partial curve]",
O=C1CCCN1CCCNc1ccc(S(=O)(=O)N2CCCCC2)cn1,"inconclusive: 28.2 µM [inhibitor, partial curve]",
O=C(/C=C\Nc1ccc2c(c1)OCO2)c1ccc2c(c1)OCO2,,inactive: -19.5%
C=CCn1c(SCC(=O)O)nc2sc(CC)cc2c1=O,"inconclusive: 39.8 µM [inhibitor, single point]",
Cc1nc(NCc2ccco2)c(C#N)c2c1COC(C)(C)C2,"inconclusive: 7.94 µM [inhibitor, partial curve]",
CCCCNC(=O)c1c(O)c2cccc3c2n(c1=O)CCC3,"inconclusive: 39.8 µM [inhibitor, single point]",
COc1ccc(-c2coc3c(CN4CCCCC4)c(O)c(CN4CCCCC4)c(O)c3c2=O)cc1,"inconclusive: 39.8 µM [inhibitor, single point]",
COc1cc2cc(CN(CCc3cccc(C)c3)C(=S)NCCCN3CCOCC3)c(=O)[nH]c2cc1OC,"inconclusive: 31.6 µM [inhibitor, partial curve]",
CC[n+]1c(/C=C/N(C)c2ccccc2)oc2ccc(F)cc21,"inconclusive: 2.51 µM [inhibitor, full curve]",
CC(C)c1cc[n+](-c2nc([O-])sc2C=O)cc1,"inconclusive: 35.5 µM [inhibitor, single point]",
O=C(Nc1ncc2c(n1)-c1ccccc1OC2)c1ccccc1Cl,"inconclusive: 31.6 µM [inhibitor, partial curve]",

SMILES,Potency,"activity change, negative = inhibition"
Oc1oc(-c2ccccc2Br)nc1C=Nc1ccc(Br)cn1,"inconclusive: 39.8 µM [inhibitor, single point]",
Cc1cccc(Nc2nc3c(s2)CCCC3)c1,,inactive: 7.7%
O=C(CCN1C(=O)c2ccc([N+](=O)[O-])cc2C1=O)Nc1ccc(O)cc1C(=O)O,"inconclusive: 17.8 µM [inhibitor, partial curve, poor fit]",
Cc1cc(NC(=O)CN2CCCCCCC2)no1,,inactive: -24.1%
CC(NC(=O)COC(=O)c1cn(-c2ccccc2)nc1-c1cccs1)c1ccccc1 (centres undefined),"inconclusive: 35.5 µM [inhibitor, single point]",
CCCCN(C)CCNC(=O)c1c[nH]c2ccc(S(=O)(=O)N(CC)CC)cc2c1=O,"inconclusive: 25.1 µM [inhibitor, single point]",
CC(=O)OCCn1c(C)[n+](CCOC(C)=O)c2cc(Cl)c(Cl)cc21,,inactive: -11.7%
CN(C)c1ccc(C(=S)NC2CCCCC2)cc1,"inconclusive: 35.5 µM [inhibitor, single point]",
CC(C)(C)NC(=S)N/N=C/c1cc(Br)c(O)c(Br)c1,"inconclusive: 35.5 µM [inhibitor, single point]",
CCCCN(CC)CCNC(=O)c1cc2c(=O)n(C)c3ccccc3c2n1C,"inconclusive: 28.2 µM [inhibitor, partial curve]",
CCCC1(C)Nc2ccccc2-c2nc3ccccc3n21 (centres undefined),"inconclusive: 25.1 µM [inhibitor, partial curve]",
CCSc1ccccc1C(=O)N1CCN(c2ccc([N+](=O)[O-])cc2)CC1,,inactive: -10.8%
N#C/C(=C\c1ccc(Cl)cc1)c1n[nH]c(Cn2cncn2)n1,"inconclusive: 28.2 µM [inhibitor, single point]",
O=c1c2c(n3cnnc3n1-c1ccccc1)-c1ccccc1CC21CCCCC1,,inactive: -11.8%
CCOC(=O)Cn1c2ccccc2c2nc3ccccc3nc21,"inconclusive: 1.12 µM [inhibitor, full curve]",
CCOC(=O)C1CCN(S(=O)(=O)c2cccc(-c3cn4cccc(C)c4n3)c2)CC1,"inconclusive: 28.2 µM [inhibitor, single point]",
CN1C(=O)CC(N2CCC(C(N)=O)CC2)C1=O (centres undefined),,inactive: 10.4%
CN(C)/C=N/c1ncc(-c2ncc(C(F)(F)F)cc2Cl)cn1,"inconclusive: 28.2 µM [inhibitor, partial curve]",
Nc1ccc2nc3n(c(=O)c2c1)CCC3,"inconclusive: 22.4 µM [inhibitor, partial curve]",
Cc1ccc(NC(=S)NCc2ccc3c(c2)cc(C)n3C)c(C)c1,"inconclusive: 39.8 µM [inhibitor, single point]",
O=C1C2CCCN2c2ccc(S(=O)(=O)N3CCOCC3)cc2N1Cc1cccc(C(F)(F)F)c1 (centres undefined),"inconclusive: 39.8 µM [inhibitor, single point]",
Cn1nnc2cc(NC(=O)N3CC4(C)CC3CC(C)(C)C4)ccc21 (centres undefined),"inconclusive: 25.1 µM [inhibitor, partial curve]",
